We go through one substance from paper PMC10442006.

Protein sequences, listed by entry. Tags and fused reporters are not part of them.
UniProt A4GSN8: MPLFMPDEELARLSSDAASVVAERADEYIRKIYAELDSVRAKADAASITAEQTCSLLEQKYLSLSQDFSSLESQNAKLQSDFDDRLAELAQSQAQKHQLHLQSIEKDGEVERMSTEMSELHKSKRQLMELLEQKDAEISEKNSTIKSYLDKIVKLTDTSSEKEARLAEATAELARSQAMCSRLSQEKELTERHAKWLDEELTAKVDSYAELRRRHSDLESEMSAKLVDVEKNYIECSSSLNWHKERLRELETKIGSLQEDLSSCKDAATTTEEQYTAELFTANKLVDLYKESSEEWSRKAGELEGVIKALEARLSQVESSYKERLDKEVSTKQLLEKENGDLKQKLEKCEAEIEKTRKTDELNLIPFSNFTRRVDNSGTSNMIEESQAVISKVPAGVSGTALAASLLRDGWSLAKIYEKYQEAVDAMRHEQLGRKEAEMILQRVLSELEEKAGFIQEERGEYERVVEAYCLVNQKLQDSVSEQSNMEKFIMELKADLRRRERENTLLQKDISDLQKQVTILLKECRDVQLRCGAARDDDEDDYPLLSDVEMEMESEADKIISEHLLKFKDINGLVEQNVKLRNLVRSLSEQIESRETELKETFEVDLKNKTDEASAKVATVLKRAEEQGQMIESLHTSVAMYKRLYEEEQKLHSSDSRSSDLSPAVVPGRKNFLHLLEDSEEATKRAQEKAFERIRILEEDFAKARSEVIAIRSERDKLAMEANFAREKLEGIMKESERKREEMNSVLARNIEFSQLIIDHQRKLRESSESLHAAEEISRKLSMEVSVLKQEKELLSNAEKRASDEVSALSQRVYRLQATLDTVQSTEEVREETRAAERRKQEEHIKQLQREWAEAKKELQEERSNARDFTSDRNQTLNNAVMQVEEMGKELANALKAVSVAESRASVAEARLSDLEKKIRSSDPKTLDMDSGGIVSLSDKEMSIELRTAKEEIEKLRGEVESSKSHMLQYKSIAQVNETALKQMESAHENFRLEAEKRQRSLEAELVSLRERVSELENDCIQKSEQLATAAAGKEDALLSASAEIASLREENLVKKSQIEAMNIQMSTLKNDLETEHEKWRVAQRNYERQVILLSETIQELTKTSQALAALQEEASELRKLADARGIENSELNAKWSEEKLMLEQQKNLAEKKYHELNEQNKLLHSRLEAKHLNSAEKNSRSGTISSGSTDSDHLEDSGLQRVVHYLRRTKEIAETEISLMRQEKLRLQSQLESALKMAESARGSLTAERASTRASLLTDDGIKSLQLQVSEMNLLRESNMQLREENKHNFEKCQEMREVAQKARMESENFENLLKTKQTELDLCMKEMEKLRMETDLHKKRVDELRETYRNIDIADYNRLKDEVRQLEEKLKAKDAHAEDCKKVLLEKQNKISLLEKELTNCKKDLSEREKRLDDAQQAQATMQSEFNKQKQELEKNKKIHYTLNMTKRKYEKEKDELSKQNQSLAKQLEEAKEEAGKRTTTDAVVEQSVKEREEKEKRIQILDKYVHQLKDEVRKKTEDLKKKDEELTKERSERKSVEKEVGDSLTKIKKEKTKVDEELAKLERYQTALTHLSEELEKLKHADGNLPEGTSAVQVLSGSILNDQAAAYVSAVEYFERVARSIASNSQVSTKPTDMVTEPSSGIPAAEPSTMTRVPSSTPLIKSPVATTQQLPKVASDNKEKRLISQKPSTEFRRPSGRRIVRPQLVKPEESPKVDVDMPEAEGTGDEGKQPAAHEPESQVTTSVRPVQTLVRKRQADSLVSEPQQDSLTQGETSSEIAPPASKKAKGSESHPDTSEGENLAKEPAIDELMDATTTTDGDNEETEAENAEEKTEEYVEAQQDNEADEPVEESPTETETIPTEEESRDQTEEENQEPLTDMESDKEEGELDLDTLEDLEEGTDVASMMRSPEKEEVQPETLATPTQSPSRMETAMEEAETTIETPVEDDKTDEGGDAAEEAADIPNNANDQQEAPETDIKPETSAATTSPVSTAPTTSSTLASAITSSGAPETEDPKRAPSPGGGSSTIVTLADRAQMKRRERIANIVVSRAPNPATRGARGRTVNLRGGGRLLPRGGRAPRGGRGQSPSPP

No constants are given. Whether binding was seen depends on the method and setting. Some binding calls cover weakened binding; strength is not graded here. Where a sequence is shown, tags or fusion partners need not be part of it.

Assay in all cases: two-hybrid; NUA or ESD4 on the GAL4 AD (pGADT7), SnRK2s on the GAL4 BD (pGBKT7), co-transformed into S. cerevisiae AH109; growth on -Leu/-Trp/-His (with 3-AT) or -Leu/-Trp/-His/-Ade
For assay [1], the target named is T1, SnRK2.6/Open Stomata 1 (OST1) fused to the GAL4 BD (Arabidopsis thaliana) (UniProt Q940H6).
T1 sequence: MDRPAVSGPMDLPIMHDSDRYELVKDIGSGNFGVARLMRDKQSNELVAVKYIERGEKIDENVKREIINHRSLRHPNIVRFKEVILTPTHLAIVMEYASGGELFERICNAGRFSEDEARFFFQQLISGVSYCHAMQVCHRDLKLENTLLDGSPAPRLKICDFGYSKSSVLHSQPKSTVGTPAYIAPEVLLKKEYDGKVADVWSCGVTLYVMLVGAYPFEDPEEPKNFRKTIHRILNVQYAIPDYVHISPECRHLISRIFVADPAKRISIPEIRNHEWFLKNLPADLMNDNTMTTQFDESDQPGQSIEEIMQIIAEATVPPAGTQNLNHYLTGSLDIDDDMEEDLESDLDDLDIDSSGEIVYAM

The target of assay [2] is T2, SnRK2.10 fused to the GAL4 BD (Arabidopsis thaliana) (UniProt Q9C958).
T2 sequence: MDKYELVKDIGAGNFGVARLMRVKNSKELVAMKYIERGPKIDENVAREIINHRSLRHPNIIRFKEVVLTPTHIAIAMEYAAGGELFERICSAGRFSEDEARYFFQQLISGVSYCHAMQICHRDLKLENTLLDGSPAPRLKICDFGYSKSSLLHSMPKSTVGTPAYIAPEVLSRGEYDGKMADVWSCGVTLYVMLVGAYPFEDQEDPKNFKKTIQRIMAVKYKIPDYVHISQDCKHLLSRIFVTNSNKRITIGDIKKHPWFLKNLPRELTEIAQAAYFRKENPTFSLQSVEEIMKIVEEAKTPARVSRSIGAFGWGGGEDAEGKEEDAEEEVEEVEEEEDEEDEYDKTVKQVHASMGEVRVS

The target of assay [3] is T3, SnRK2.2 fused to the GAL4 BD (Arabidopsis thaliana) (UniProt Q39192).
T3 sequence: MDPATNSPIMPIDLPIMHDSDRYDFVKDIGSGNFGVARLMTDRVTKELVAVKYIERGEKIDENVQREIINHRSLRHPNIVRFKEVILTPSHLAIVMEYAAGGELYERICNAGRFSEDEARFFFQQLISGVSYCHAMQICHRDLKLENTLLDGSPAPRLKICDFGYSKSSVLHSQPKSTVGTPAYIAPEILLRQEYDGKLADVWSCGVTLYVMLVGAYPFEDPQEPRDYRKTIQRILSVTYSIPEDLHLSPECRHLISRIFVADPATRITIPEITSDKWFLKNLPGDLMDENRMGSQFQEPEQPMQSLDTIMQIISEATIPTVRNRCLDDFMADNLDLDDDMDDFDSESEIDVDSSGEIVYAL

Consider “NUCLEAR PORE ANCHOR (NUA) fused to the GAL4 AD (from UniProt A4GSN8 1-2093)”, for which the binding entry in assay [1] was “binds”; in assay [2] it was “no binding”; in assay [3] it was “binds”.
